Test results published in paper PMC4336329 (PLoS ONE, 2015).
Among all 310,000 compounds or so, about 14,000 (4.5%) showed an effect of 50% or more. Effects have a minus sign here. This is one part of the list.

What follows are molecules tested against human ether-à-go-go-related gene (hERG) potassium channel (human, UniProt Q12809) (assay: primary screen, population patch clamp on CHO cells stably expressing hERG).
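Further: peak tail current of the secondary pulse compared with the same well before compound.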

Chain of human ether-à-go-go-related gene (hERG) potassium channel (Q12809 whole entry, looked up): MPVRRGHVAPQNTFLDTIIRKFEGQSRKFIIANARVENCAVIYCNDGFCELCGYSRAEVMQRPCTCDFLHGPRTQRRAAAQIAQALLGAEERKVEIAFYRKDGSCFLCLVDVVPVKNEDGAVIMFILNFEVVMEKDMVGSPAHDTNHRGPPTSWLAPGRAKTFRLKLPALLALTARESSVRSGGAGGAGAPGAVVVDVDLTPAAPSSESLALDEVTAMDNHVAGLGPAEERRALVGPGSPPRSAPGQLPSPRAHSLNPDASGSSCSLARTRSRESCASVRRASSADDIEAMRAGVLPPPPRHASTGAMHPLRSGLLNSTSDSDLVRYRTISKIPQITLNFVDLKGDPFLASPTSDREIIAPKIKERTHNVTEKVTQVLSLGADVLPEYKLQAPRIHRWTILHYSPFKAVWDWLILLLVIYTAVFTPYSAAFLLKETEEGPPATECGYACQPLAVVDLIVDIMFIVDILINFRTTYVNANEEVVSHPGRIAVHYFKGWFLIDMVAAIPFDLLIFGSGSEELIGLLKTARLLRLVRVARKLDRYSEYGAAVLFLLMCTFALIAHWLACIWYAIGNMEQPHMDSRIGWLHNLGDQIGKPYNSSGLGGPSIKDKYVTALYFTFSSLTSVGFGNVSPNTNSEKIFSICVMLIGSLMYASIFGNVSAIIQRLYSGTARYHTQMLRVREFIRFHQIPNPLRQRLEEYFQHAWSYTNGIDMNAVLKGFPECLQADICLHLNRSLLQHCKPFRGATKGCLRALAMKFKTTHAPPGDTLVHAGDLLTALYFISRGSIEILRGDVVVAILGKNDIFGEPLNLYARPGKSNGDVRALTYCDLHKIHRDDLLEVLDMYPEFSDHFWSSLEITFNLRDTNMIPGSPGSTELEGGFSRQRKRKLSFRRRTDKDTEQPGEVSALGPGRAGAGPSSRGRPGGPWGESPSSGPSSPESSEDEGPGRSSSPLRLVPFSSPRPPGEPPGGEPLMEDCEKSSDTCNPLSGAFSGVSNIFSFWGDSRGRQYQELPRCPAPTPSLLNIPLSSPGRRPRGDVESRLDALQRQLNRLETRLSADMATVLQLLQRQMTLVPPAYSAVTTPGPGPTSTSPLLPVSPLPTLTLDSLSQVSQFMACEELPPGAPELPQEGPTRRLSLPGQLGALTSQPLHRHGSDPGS

Row | Structure (SMILES) | hERG current change (%, negative = inhibition) at 10uM [%]
1 | CCn1c(SCC(=O)NCc2ccc3c(c2)OCO3)nnc1-c1c[nH]c2ccccc12 | -3.24
2 | COc1cc(/C=C/c2nc3ccccc3c(=O)[nH]2)cc(Br)c1O | 30.6
3 | CCn1cc(C(=O)NCCCOC)c(=O)c2cc(S(=O)(=O)N3CCCC3)ccc21 | -4.05
4 | CC(=O)c1nc2ccccc2n1CCc1ccccc1 | -7.1
5 | CCN(CC)C(=O)CSc1nc2c(sc(=S)n2-c2ccccc2)c(=O)n1Cc1ccco1 | -78.7
6 | CC(C)c1ccc(CN(C(=O)c2cc3ccccc3oc2=O)C2CCS(=O)(=O)C2)cc1 (stereo not shown) | -62
7 | COCCN1C(=O)N[C@@H](c2cccc(C(F)(F)F)c2)[C@H](C(=O)OC)[C@H]1C | -6.73
8 | CCOC(=O)C1(C)NC(c2ccco2)C2C(=O)N(c3ccccc3)C(=O)C21 (stereo not shown) | 10.4
9 | CC1C/C(=N\Nc2ccc(S(N)(=O)=O)cc2[N+](=O)[O-])CC(C)(C)C1 (stereo not shown) | 14.3
10 | O=C(NCCCNc1ccc(C(F)(F)F)cc1[N+](=O)[O-])c1ccc(Cl)cc1 | -12.3
11 | O=C(COc1nc2ccccc2nc1N1CCOCC1)NC1CCCCC1 | 3.98
12 | Cc1ccc(CNC(=O)c2ccc(OCC(C)C)cc2)n1C | 8.73
13 | COc1cccc(C(=O)NN2c3ccccc3CCc3ccccc32)c1 | 4.2
14 | CC(=O)N1CCN2C(=O)C1CCCC(=O)c1cc(C)ccc12 (stereo not shown) | 9.36
15 | CCc1ccc(NS(=O)(=O)c2cccc3nonc23)cc1 | 1.41
16 | CCOC(=O)c1ccc2c(c1)nc(SCC(=O)c1cc3ccccc3o1)n2CC | 17.4
17 | COc1ccc(C(CNC(=O)CSc2ccc(Br)cc2C)N2CCOCC2)cc1 (stereo not shown) | -26
18 | CCOC(=O)Cc1cnc(NC(=O)CSc2nc(C)c(CC)c(=O)[nH]2)s1 | 11.9
19 | C(=N\Nc1nc(N2CCCC2)nc(N2CCCC2)n1)/c1cccnc1 | 6.33
20 | Cl.O=C(Cc1ccccc1)OC(COCc1ccccc1)CN1CCOCC1 (stereo not shown) | -7.21
21 | COC(=O)c1ccc(NCC(=O)N2CCCCCC2)cc1 | -8.63
22 | CC(=O)Nc1ccc(N(CC(O)Cn2c3ccccc3c3ccccc32)S(=O)(=O)c2ccc(C)cc2)cc1 (stereo not shown) | -8.96

Row | Structure (SMILES) | hERG current change (%, negative = inhibition) at 10uM [%]
23 | O=C(OCC(=O)N1CCCC1)c1ccco1 | 4.85
24 | CCOC(=O)C(Cc1ccccc1)c1ccnc2nc(N)nn12 (stereo not shown) | -7.02
25 | COc1cc(CN2CCN(C(=O)c3cccc4ccccc34)CC2)cc(OC)c1OC.O=C(O)C(=O)O | 4.24
26 | O=C(Nc1ccc2c(c1)OCO2)c1n[nH]c(=O)c2ccccc12 | 4.23
27 | CC1CCc2nc(NC(=O)C3COc4ccccc4O3)sc2C1 (stereo not shown) | -6.74
28 | Cc1cccc(OCC(=O)Nc2ccc3c(c2)nc(CCN2CCN(c4ccccn4)CC2)n3C)c1 | -79.5
29 | CCOC(=O)Cc1c(C)nc2c(-c3ccc(Cl)cc3)c(C)[nH]n2c1=O | 20.6
30 | O=C(NC1CCc2ccccc21)C1CCN(S(=O)(=O)c2ccc(Cl)cc2)CC1 (stereo not shown) | 3.03
31 | O=C(CNC(=O)c1ccc2ccccc2c1)NCc1ccccc1F | 0.302
32 | O=C(NNC(=S)NCCc1ccccc1)c1ccc(Br)s1 | 10
33 | CC(NC(=O)NC1CCCCC1)c1ccccc1 (stereo not shown) | -3.12
34 | CC(C)N(Cc1ccccc1)C(=S)Nc1ccc(F)cc1 | -3.42
35 | N/C(=N\OC(=O)COc1ccc(Cl)cc1Cl)c1cccnc1 | 40.6
36 | CC(=O)NC(CC(=O)NC1CCCc2ccccc21)c1ccccc1 (stereo not shown) | 8.17
37 | O=C(COC(=O)c1cnccn1)Nc1ccc(Cl)cn1 | 12.1
38 | Cn1c(CCC(=O)Nc2ccc(N3CCOCC3)cc2)nc(=O)c2ccccc21 | 10.2
39 | CNc1nc(-c2ccc(S(=O)(=O)N3CCCCC3)cc2)cs1 | 10.1
40 | CCN(Cc1ccc(OC)c(COC)c1)CC1CCCN(CCc2cccc(OC)c2)C1 (stereo not shown) | -26.3
41 | O=C(NCCCN1CCOCC1)c1ccc2c(c1)N(Cc1ccc(Cl)cc1)C(=O)c1ccccc1S2=O (stereo not shown) | -42.1
42 | COc1cccc(OCc2cc(C(=O)NCc3ccccn3)no2)c1 | 1.59
43 | COc1ccc(N2CSC3=C(C#N)C(c4ccc(OC)c(OC)c4)CC(=O)N3C2)c(OC)c1 (stereo not shown) | -47.5
44 | COc1cc(C(c2c(O)nc(SC)[nH]c2=O)c2c(O)nc(SC)[nH]c2=O)cc(OC)c1OC | 13.8

Row | Structure (SMILES) | hERG current change (%, negative = inhibition) at 10uM [%]
45 | COc1ccc(NS(=O)(=O)c2cc(NC(=O)c3ccc(C)s3)ccc2N2CCOCC2)cc1 | -14.1
46 | CC(=O)Nc1ccc2c(c1)nc1n2CCSC1 | 11.5
47 | COCCN1CC(=O)N2C(c3cccc(OC)c3)c3[nH]c4ccccc4c3C[C@H]2C1=O (stereo partly shown) | -38.6
48 | Cc1ccc(C2CC(=O)NC(SCC(=O)Nc3nccs3)=C2C#N)cc1 (stereo not shown) | 4.55
49 | O=C(c1ccc(Br)o1)N1CCN(C23CC4CC(CC(C4)C2)C3)CC1 | -17.6
50 | O=C(O)c1cccc(NC(=O)c2cc(NC(=O)c3ccccc3)cc(NC(=O)c3ccccc3)c2)c1 | 16.1
51 | CCOCCn1c(=O)c2c(nc3n2CCN3c2ccc(CC)cc2)n(C)c1=O | 6.46
52 | CCOc1cc(C(=O)NCCOC)cc(OCC)c1OCC | 10.6
53 | CCCCCOC(=O)c1ccc(OC(=O)c2cncc(Br)c2)cc1 | 0.0483
54 | Nc1nnc(SCc2ccccc2F)n1-c1ccccc1 | 15.9
55 | COc1ccc(C2=NC(c3ccccc3)CO2)cc1 (stereo not shown) | -2.03
56 | CCCSc1nc(N2CCOCC2)c2c(c1C#N)CC(C)(C)SC2 | -21.4
57 | C=CCOc1ccc(CN(C)c2ccc(S(=O)(=O)N3CCN(C)CC3)cc2[N+](=O)[O-])cc1 | 6.82
58 | Cc1ccc(S(=O)(=O)/N=C/N(C)C)cc1 | 0.768
59 | COc1cc(-n2c(=O)c3ccccc3n(Cc3cccc(F)c3)c2=O)cc(OC)c1OC | 8.36
60 | COc1ccc(/C(C)=N/NC(=O)CNC(=O)C2COc3ccccc3O2)c(OC)c1 (stereo not shown) | 5.46
61 | CC1CCN(c2ccc3nnc(CCC(=O)N4CCCCC4)n3n2)CC1 | -3.14
62 | O=C(Nc1cc(S(=O)(=O)N2CCOCC2)ccc1N1CCOCC1)c1cccs1 | -27.1
63 | O=C(O)C(Sc1ccncn1)c1ccccc1 (stereo not shown) | 10.1
64 | CC(NC(=O)NCC1CCCO1)(C(F)(F)F)C(F)(F)F (stereo not shown) | 0.71
65 | O=C(NCCCO)c1ccc2[nH]c3c(c2c1)CCCC3 | 8.79
66 | COC(=O)c1ccc(Nc2nc(N3CCOCC3)nc(N3CCOCC3)n2)cc1.Cl | -1.25

Row | Structure (SMILES) | hERG current change (%, negative = inhibition) at 10uM [%]
67 | COc1ccc(Cc2nnc(Nc3ccc4c(c3)OCCO4)[nH]c2=O)cc1 | 16.9
68 | COc1ccccc1N1CCN(C(=O)CCc2ccccc2)CC1 | -11.4
69 | On1c(-c2ccc(Cl)cc2Cl)nc2ncccc21 | 8.16
70 | COc1ccc(NC(=O)CN(C)C(=O)c2cc3c(s2)CCC3)cc1 | -4.78
71 | C/C(=N\NC(=O)c1[nH]c2c([N+](=O)[O-])cc(C)cc2c1-c1ccccc1)c1cccnc1 | 6.67
72 | CN(C)CCOc1cc(Cl)cc(Cl)c1 | 7.27
73 | C=CCOc1cc(C)nc(-c2ccccc2O)n1 | -1.94
74 | CC1CCN(Cc2nc(-c3ccc(Cl)cc3)no2)CC1 | 8.57
75 | CC(C)CCNC(=O)CN(CC1CCCO1)C(=O)CCC(=O)Nc1ccccn1 (stereo not shown) | -0.75
76 | Cn1nc(-c2ccc(Cl)cc2)nc2c(=O)n(C)c(=O)nc1-2 | -38.8
77 | O=C(NCc1ccc2c(c1)OCO2)c1cccnc1 | 1.95
78 | C/C(CC(=O)Nc1ccc(N(C)C)cc1)=N\NC(=O)c1ccccc1O | 15.5
79 | CC(CN1CCCCC1)OC(=O)/C=C/c1ccccc1.Cl (stereo not shown) | -71
80 | CCOC(=O)Cc1csc(NC(=O)c2ccc(N3CCOCC3)cc2[N+](=O)[O-])n1 | -36.5
81 | O=C(O)C1=CC[C@@H](c2ccc(Cl)cc2)N(S(=O)(=O)c2ccc(Cl)cc2)[C@H]1c1ccc(F)cc1 | 4.97
82 | Cc1cc(C)cc(C(=O)N2CCN(c3ccccn3)CC2)c1 | -11.4
83 | Cc1csc(SCC(=O)NC(=O)C2CCCCC2)n1 | 29.5
84 | Cc1ccc2c(c1)N(C)/C(=C/c1cccc[n+]1C)S2.[I-] | -47.5
85 | CCn1c(COc2ccccc2C)nnc1SCc1nc2ccccc2c(=O)[nH]1 | 24
86 | C=CCOc1ccccc1CN1CCC(Oc2cc(C(=O)NC3CC3)ccc2OC)CC1 | -72.2
87 | CC(C)c1ccc(/C=C/C(=O)NCCC2=CCCCC2)cc1 | -9.54
88 | CC(C)Cn1c(=O)c(-[n+]2ccccc2)c([O-])c2ccccc21 | -9.67
